Reference: EP3970494A1 (priority 2020, dated 2022)

Tested on: Phytophthora infestans
Assay type: cell-based
Conditions: micro titer plate, 405 nm, 7 days after inoculation, 18 °C

Molecule	Fungal growth at 31 ppm (%) PHYTIN [%]
CO/N=C(/C(=O)OC)c1cccc(C)c1CO/N=C(\C)c1cnc(C)c(F)c1 [Example 100]	0
(2E)-2-methoxvimino-N-methyl-2-[3-methyl-2-[[(E)-1-[2-methyl-5-(trifluoromethyl)pyrazol-3-yl]ethylideneamino]oxymethyl]phenyl]acetamide [Example 118]	18
(2E)-2-methoxyimino-N-methyl-2-[3-methyl-2-[[(E)-1-[4-(trifluoromethyl)-6-vinyl-2-pyridyl]ethylideneamino]oxymethyl]phenyl]acetamide [Example 114]	0
